Experimental findings from the RNAGym collection of RNA variant scans (doi:10.7554/elife.90254) are described below.

First the molecules themselves.
B1: LINE1-mini (parent)
chain: GGCAGAGCUCAACACAGCGUGGCAAAGUGGCUGUGGCUAGACUGCC

The source gives no read counts; variants with many changes may rest on few reads.

Variants of B1 are the subject of this data set. Briefly: self-cleavage, relative activity (ratio to wild type); higher = more cleavage; in vitro, sequencing; the parent is a self-cleaving ribozyme.
Consider GGCAGAGCCCAACACAACGUGGCAAAGUGGCUGAGGCUAGACUGCC [U9C G17A U34A], for which the self-cleavage came out at 0.02.

For the variant GGCAGAGCCCAACACAGCUUGGCAAAGUGGCUGUGGCUAGAAUGCC [U9C G19U C42A], the self-cleavage turned out to be 0.03.

With GGCAGAGCGCAACCCAGCGUGGCAAAGUGGCUGUGACUCGACUGUC [U9G A14C G36A A39C C45U], the self-cleavage came to 0.03.

For the variant GGCAGAGCGCAUCACAGCGUGGCUAAGUGGCUGUGGCUAGACUGCC [U9G A12U A24U], the self-cleavage turned out to be 0.05.

Regarding GGCAGAGCCCAACACAGCGUGGAAGAGUGGCUGUGGCUAGACUGCC [U9C C23A A25G], the self-cleavage amounted to 0.02.

GGCAGAGCCCAAAACAGCGUGGCAAAGUGGCUGUGGCUAGUCUGCC [U9C C13A A41U]: the self-cleavage came out at 0.01.

For GGCAGAGCCCAACACACCGUGGCAAAGUGGCUGUGGCUGGACUGCC [U9C G17C A39G], the self-cleavage was determined as 0.02.

Take GGCAGAGCGCAACCCAGCGUGGCAAAGUGGCUGUCGCUAGACUUCC [U9G A14C G35C G44U]: the self-cleavage was determined as 0.01.

Consider GGCAGAGCCCAACACAGCGGGGCAAAGUGGCUGUGUCUAGACUGCC [U9C U20G G36U], for which the self-cleavage is 0.07.

Regarding GGCAGAGCGCAACACCGCGUGGCAAAGUGGCUGUGGCUAGACAUGC [U9G A16C U43A G44U C45G], the self-cleavage stood at 0.02.

Take GGCAGAGCGCAACACAGCGUGGCAGAGUGGCCGUGGCUAGACUGCC [U9G A25G U32C]: the self-cleavage worked out at 0.01.

Consider GGCAGAGCCCAAGACAACGUGGCAAAGUGGCUGUGGCUAGACUGCC [U9C C13G G17A], for which the self-cleavage turned out to be 0.03.

As for GGCAGAGCCGAACACAGCAUGGCAAAGUGGCUGUGGCUAGACUGCC [U9C C10G G19A], the self-cleavage turned out to be 0.

Regarding GGCAGAGCCCAAAACAGCGUGGCAAAGUCGCUGUGGCUAGACUGCC [U9C C13A G29C], the self-cleavage was 0.01.

In the case of GGCAGAGCCCAACACAGGGUGGCAAAGUAGCUGUAGCUAGACUGCC [U9C C18G G29A G35A], the self-cleavage amounted to 0.01.

Consider GGCAGAGCCCAACACAGCCUGGCAAAGUGGUUUUGGCUAGACUGCC [U9C G19C C31U G33U], for which the self-cleavage came to 0.06.

As for GGCAGAGCCCAACACAGCGUAGCAAAGUGGCUGUGGCUAGACUGGC [U9C G21A C45G], the self-cleavage came out at 0.02.

Turning to GGCAGAGCGCACCACAGCGUGUCAAAGUGUCUGUGGCUCGACUGCC [U9G A12C G22U G30U A39C], the self-cleavage worked out at 0.01.

GGCAGAGCGCAACACAGCGUGGCCAAGUGGCUGUGGCGAGACUGCC [U9G A24C U38G]: the self-cleavage came out at 0.03.

With GGCAGAGCGCAACACGGCGUAGCAAAGUGGCUUUGGCUAGACUGCC [U9G A16G G21A G33U], the self-cleavage amounted to 0.07.

On to GGCAGAGCCCAACACAGCGUGGCAAAGUGGCCGUGGCUCGACUGCC [U9C U32C A39C], for which the self-cleavage stood at 0.03.

GGCAGAGCCCAACACAGGGUGGCAAAGUGGCUUUGGCUAGACUUCC [U9C C18G G33U G44U]: the self-cleavage turned out to be 0.11.

GGCAGAGCGCAACUCAGCGUGGCAAACUGGCUGUGGCUAGACUGUC [U9G A14U G27C C45U]: the self-cleavage is 0.01.

GGCAGAGCCCAACACAGCGUGGCAAAGUGGCUGUGGCCAGACUACC [U9C U38C G44A]: the self-cleavage is 0.03.

As for GGCAGAGCGCAUAUCAGCGUGGCAAAUUGGCUGUGGCUAGACCGCC [U9G A12U C13A A14U G27U U43C], the self-cleavage is 0.04.

Consider GGCAGAGCGAAAUACAGUGUGACAAAGUGGCUGUGGCUAGACUGCC [U9G C10A C13U C18U G22A], for which the self-cleavage was determined as 0.03.

Turning to GGCAGAGCCCAACACAGCGUGGCAAAGUGUCGGUGGCUAGACUGCC [U9C G30U U32G], the self-cleavage turned out to be 0.02.

Turning to GGCAGAGCGAAACACAGCGUGGCAAAGUGGCUGUGGCUAGCCUGCC [U9G C10A A41C], the self-cleavage was 0.03.

As to GGCAGAGCGCAACUCAGCGUGGCAAAGUGGGUGUUGCUAGACUGCC [U9G A14U C31G G35U], the self-cleavage stood at 0.

Regarding GGCAGAGCCCAAAACAGCGUGGCCAAGUGGCUGUGGCUAGACUACC [U9C C13A A24C G44A], the self-cleavage was determined as 0.04.

Regarding GGCAGAGCCUAACACAGCGUGGCAAAGUGGCUGUGGCUAGACUUCC [U9C C10U G44U], the self-cleavage amounted to 0.03.

Turning to GGCAGAGCCCAACACAACGUGGCAACGUGGCUGUGGCUAGACUCCC [U9C G17A A26C G44C], the self-cleavage stood at 0.01.

Regarding GGCAGAGCGCACCACAGCGUAGCAAAGUGCCUGUGGUUAGACUGCC [U9G A12C G21A G30C C37U], the self-cleavage turned out to be 0.02.

Turning to GGCAGAGCGCAACACAGCGUGGCGAAGUGGUUGUGGCUAGAGUGCC [U9G A24G C31U C42G], the self-cleavage was 0.01.

As for GGCAGAGCCCAACACAGCGUGCCAAAGUGGCUGUGGCUAUACUGCC [U9C G22C G40U], the self-cleavage is 0.01.

Consider GGCAGAGCCCAAAACAGCGUGGCAGAGUGACUGUGGCGAGACUCCC [U9C C13A A25G G30A U38G G44C], for which the self-cleavage stood at 0.01.

On to GGCAGAGCGCUGCACAGCGUGGCAAAGUGGCUGUGGCUAGACUGCU [U9G A11U A12G C46U], for which the self-cleavage was 0.02.

As for GGCAGAGCCCAACACAGCGUGGCAAAGUGGCGGUCGCUAGACUGCC [U9C U32G G35C], the self-cleavage stood at 0.02.

As for GGCAGAGCCCAACACAGCGUCGCAAAGUGGCCGUGGGUAUACUGCC [U9C G21C U32C C37G G40U], the self-cleavage stood at 0.

For GGCAGAGCCCAACACAGCGUGGCAAAGAGGGUGCGGCUAGACUGCC [U9C U28A C31G U34C], the self-cleavage was 0.02.

For GGCAGAGCCUAACACAACGUGGCAAGGUGAAUGUGUCUAGACUGCC [U9C C10U G17A A26G G30A C31A G36U], the self-cleavage was determined as 0.02.

GGCAGAGCCCAACAAAGCGUGGCAAAGUGGCUGUGGCGAGACUGCC [U9C C15A U38G]: the self-cleavage stood at 0.02.

Take GGCAGAGCGCGACACAGCGUGGCAAAGUGUCUUUGGCUAGACUGCC [U9G A11G G30U G33U]: the self-cleavage stood at 0.01.

As to GGCAGAGCGCAACACAGCGUGGCAACGUGGCUGUGGCUAGGCUGCC [U9G A26C A41G], the self-cleavage amounted to 0.09.

In the case of GGCAGAGCCCAACACAGCGUGGCAAAGUGGCCUUGGCUAGACUGCC [U9C U32C G33U], the self-cleavage was 0.

GGCAGAGCGCACCACAGCGUGGCAAAGUGGCUGUGGCCAGACUGCC [U9G A12C U38C]: the self-cleavage worked out at 0.02.

As for GGCAGAGCCCAAAACAGCGUGGCAAAGUGGCUGCGGGUAGACUGCC [U9C C13A U34C C37G], the self-cleavage stood at 0.01.

For the variant GGCAGAGCGCAGCACAGAGUGGCAAAGUGGCUGUGGCUAGACUGCC [U9G A12G C18A], the self-cleavage turned out to be 0.01.

Consider GGCAGAGCGCAACCCAGCGUAGAAAAGUGGCUGUGGCUAGACUGCC [U9G A14C G21A C23A], for which the self-cleavage is 0.04.

For GGCAGAGCCCAACACAGAGUGGCCAAGUGGAUGUGGCUAGACUGCC [U9C C18A A24C C31A], the self-cleavage stood at 0.02.

Regarding GGCAGAGCGCCACACAGCGUGGCUAAGUGGCUGUGGAUAGACUGCC [U9G A11C A24U C37A], the self-cleavage came out at 0.01.

As to GGCAGAGCCCAACAGUGCGUGGCAAAGUGUCUGUGGCUAGACUGCC [U9C C15G A16U G30U], the self-cleavage turned out to be 0.03.

On to GGCAGAGCGCACCACAGCGUGGCAAAGUGACUGUGGCUAGAAUGCU [U9G A12C G30A C42A C46U], for which the self-cleavage was 0.04.

As to GGCAGAGCGCACCACCGCGUGGCAAAGUGGCUGUGGCUAGACUGCC [U9G A12C A16C], the self-cleavage was found to be 0.02.

As to GGCAGAGCCCAACACAGCGUGGCAAAGUUGCUGUGGCUAGACUGAC [U9C G29U C45A], the self-cleavage was determined as 0.07.

Regarding GGCAGAGCCCAACACAGCGUUGCAAAGUGGCUGUGGCUACACUGCC [U9C G21U G40C], the self-cleavage came to 0.04.
